This is one part of the list. These are noisy estimates, calculated here from bound and input reads.
Each sequence was assayed against T1, Pho4 (S. cerevisiae) (UniProt P07270) (assay: relative binding free energy (BET-seq); higher = weaker binding). Conditions: reference: library average.
T1 sequence: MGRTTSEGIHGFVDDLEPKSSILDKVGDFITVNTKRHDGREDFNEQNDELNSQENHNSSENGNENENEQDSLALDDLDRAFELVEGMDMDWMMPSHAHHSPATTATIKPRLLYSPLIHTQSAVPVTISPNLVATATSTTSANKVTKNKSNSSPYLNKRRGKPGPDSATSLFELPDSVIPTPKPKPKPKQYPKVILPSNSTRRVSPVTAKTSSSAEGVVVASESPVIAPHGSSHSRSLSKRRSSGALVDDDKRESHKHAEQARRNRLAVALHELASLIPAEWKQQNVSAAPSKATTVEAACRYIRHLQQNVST

Row | Sequence | relative binding free energy
1 | ATCGGCACGTGGAGTG | -0.12 kcal/mol
2 | TCAAGCACGTGATTTT | 0.16 kcal/mol
3 | TAATTCACGTGGGTTT | 0.25 kcal/mol
4 | TGGTACACGTGCGCTG | -0.03 kcal/mol
5 | GGTCACACGTGGGGTT | 0.06 kcal/mol
6 | TAAGGCACGTGGAATT | 0.01 kcal/mol
7 | ATCTACACGTGTTTGG | -0.01 kcal/mol
8 | TGTCGCACGTGGTGAT | -0.07 kcal/mol
9 | GTTGGCACGTGGACGG | 0.02 kcal/mol
10 | GGTTACACGTGATGAA | 0.37 kcal/mol
11 | GAAGGCACGTGATATG | 0.02 kcal/mol
12 | AACTTCACGTGGAGGG | 0.15 kcal/mol
13 | TGGTGCACGTGCGTCT | -0.11 kcal/mol
14 | GACCGCACGTGTGGGG | 0.13 kcal/mol
15 | AAGGTCACGTGAATTT | 0.33 kcal/mol
16 | TCGGTCACGTGGTATG | 0.08 kcal/mol
17 | TGGCGCACGTGTTGTA | -0.17 kcal/mol
18 | AGTGGCACGTGGGTAT | -0.28 kcal/mol
19 | TTTTTCACGTGTATTC | 0.34 kcal/mol
20 | TCTTGCACGTGTTCGT | -0.01 kcal/mol
21 | GGGGTCACGTGTCAAG | 0.11 kcal/mol
22 | ACGGGCACGTGGTGGG | -0.2 kcal/mol
23 | GGGGGCACGTGGTGCA | -0.19 kcal/mol
24 | ATGTGCACGTGGAGGC | -0.08 kcal/mol
25 | CTACTCACGTGTGGTG | 0.2 kcal/mol

Row | Sequence | relative binding free energy
26 | ATTTGCACGTGTGTGT | 0.06 kcal/mol
27 | ATTTTCACGTGGTAGG | 0.22 kcal/mol
28 | TAGTTCACGTGAGCAT | 0.39 kcal/mol
29 | TTCTGCACGTGTCATG | 0.08 kcal/mol
30 | GGGGCCACGTGCGGTG | -0.1 kcal/mol
31 | ATATGCACGTGTGAGG | -0.02 kcal/mol
32 | CGTAGCACGTGAGGAG | 0.3 kcal/mol
33 | GGATGCACGTGTATTT | 0.1 kcal/mol
34 | AGGCACACGTGGTAGG | 0 kcal/mol
35 | ATGGCCACGTGATTAG | 0.1 kcal/mol
36 | ACTGTCACGTGAAGGT | 0.23 kcal/mol
37 | ATGTTCACGTGGCTTA | 0.01 kcal/mol
38 | GATAGCACGTGAGATT | 0.24 kcal/mol
39 | CGTAACACGTGATAGT | 0.2 kcal/mol
40 | GGAAACACGTGAGTTT | 0.4 kcal/mol
41 | AAATTCACGTGAGCGT | 0.34 kcal/mol
42 | AGGAGCACGTGATGGT | 0 kcal/mol
43 | CTTGGCACGTGAGAGG | 0.02 kcal/mol
44 | TTACGCACGTGAGTGT | -0.01 kcal/mol
45 | CTCGGCACGTGTGTTG | -0.03 kcal/mol
46 | ATCATCACGTGTTGGG | 0.21 kcal/mol
47 | GAGGGCACGTGTGGTG | -0.02 kcal/mol
48 | CTTGGCACGTGGTATT | -0.2 kcal/mol
49 | ATCTTCACGTGGTGGA | 0.18 kcal/mol
50 | ATTACCACGTGGTTTG | -0.03 kcal/mol

Row | Sequence | relative binding free energy
51 | TTCTGCACGTGATGTG | -0.01 kcal/mol
52 | AGGGCCACGTGATGCG | 0.15 kcal/mol
53 | TTTGTCACGTGACAAT | 0.11 kcal/mol
54 | CTCGGCACGTGAGGTG | 0.12 kcal/mol
55 | TATCGCACGTGCTTTG | -0.05 kcal/mol
56 | GATTTCACGTGTGGGG | 0.32 kcal/mol
57 | GGTTTCACGTGAAATG | 0.4 kcal/mol
58 | AGCGGCACGTGGGTAT | -0.25 kcal/mol
59 | CGGCGCACGTGTGTTG | -0.01 kcal/mol
60 | AAGTTCACGTGTAGGC | 0.4 kcal/mol
61 | ATGGACACGTGCGTTA | -0.09 kcal/mol
62 | TGGGACACGTGGGTAT | -0.14 kcal/mol
63 | GGTCGCACGTGGGAGG | -0.11 kcal/mol
64 | TGTTTCACGTGTATTC | 0.09 kcal/mol
65 | TTTCACACGTGTTTCT | 0.18 kcal/mol
66 | AACTTCACGTGAGTGT | 0.39 kcal/mol
67 | TTTGCCACGTGGAAGT | -0.01 kcal/mol
68 | TAGGCCACGTGGTGGG | -0.14 kcal/mol
69 | GAAGACACGTGAGTGG | 0.26 kcal/mol
70 | TGGAGCACGTGTTCGT | -0.06 kcal/mol
71 | AGTGCCACGTGGGACT | -0.04 kcal/mol
72 | GGATCCACGTGGGCTT | 0.15 kcal/mol
73 | AACGGCACGTGTGGTG | 0.03 kcal/mol
74 | GGCCTCACGTGGGGAT | 0.11 kcal/mol
75 | AGCTACACGTGTTGTT | 0.18 kcal/mol

Row | Sequence | relative binding free energy
76 | CGAGGCACGTGTTTTT | -0.08 kcal/mol
77 | TGTGTCACGTGTTCAG | 0.02 kcal/mol
78 | TTCATCACGTGGAAGT | 0.25 kcal/mol
79 | TAGGTCACGTGGAAGT | 0.2 kcal/mol
80 | AGTGTCACGTGACACG | 0.29 kcal/mol
81 | TTAGTCACGTGGTGAC | 0.08 kcal/mol
82 | GTTGACACGTGCGTCG | 0.04 kcal/mol
83 | GGTTTCACGTGGGAGG | 0.33 kcal/mol
84 | AGGGGCACGTGGTCCT | -0.28 kcal/mol
85 | TTTTTCACGTGAGCGG | 0.32 kcal/mol
86 | TATAACACGTGATTGG | 0.16 kcal/mol
87 | AAAATCACGTGGTATA | 0.13 kcal/mol
88 | GGTTTCACGTGGTCGT | 0.27 kcal/mol
89 | TATAACACGTGATTTA | 0.01 kcal/mol
90 | GGGTCCACGTGGGTGT | -0.07 kcal/mol
91 | GAGTACACGTGGGGGG | -0.01 kcal/mol
92 | TTAAGCACGTGACGTG | -0.02 kcal/mol
93 | TGATGCACGTGCTGTC | -0.02 kcal/mol
94 | CGTAGCACGTGGTCGG | -0.15 kcal/mol
95 | ATAGTCACGTGCTGAG | 0.12 kcal/mol
96 | AGAAGCACGTGTGGGT | 0.06 kcal/mol
97 | CTATGCACGTGTGAAG | 0.06 kcal/mol
98 | TCTTTCACGTGTCGTT | 0.11 kcal/mol
99 | TGTGGCACGTGATACT | -0.03 kcal/mol
100 | GGTTTCACGTGGCAGA | 0.16 kcal/mol

Row | Sequence | relative binding free energy
101 | GGTGTCACGTGGTTAT | 0.23 kcal/mol
102 | GCGTGCACGTGAAGGG | 0.22 kcal/mol
103 | GGGCCCACGTGGCTGG | -0.11 kcal/mol
104 | TTGTACACGTGGGCTA | -0.11 kcal/mol
105 | TCGAGCACGTGGAGTG | -0.08 kcal/mol
106 | ATAGCCACGTGATGTG | -0.04 kcal/mol
107 | AGTGGCACGTGCTAGT | -0.28 kcal/mol
108 | TTGGTCACGTGGCGCG | 0.01 kcal/mol
109 | TTGTCCACGTGATGTT | 0.24 kcal/mol
110 | TACTTCACGTGGTGAT | 0.29 kcal/mol
111 | AATTTCACGTGAGGTC | 0.38 kcal/mol
112 | TTTCGCACGTGTAGAT | 0.21 kcal/mol
113 | GGGGGCACGTGATACG | 0.06 kcal/mol
114 | TGGCCCACGTGGGGTG | -0.13 kcal/mol
115 | GCTGACACGTGAGGTG | 0.28 kcal/mol
116 | TGAGTCACGTGGGTTT | 0 kcal/mol
117 | GCTTTCACGTGTGAGG | 0.37 kcal/mol
118 | TGGCACACGTGGGAGT | -0.15 kcal/mol
119 | CGAGGCACGTGAGTAT | 0.03 kcal/mol
120 | ACGGTCACGTGAATGG | 0.33 kcal/mol
121 | AGGGACACGTGGTAAG | 0 kcal/mol
122 | TATTTCACGTGGCTGG | 0.25 kcal/mol
123 | CATAACACGTGGTGGT | -0.17 kcal/mol
124 | ATCTTCACGTGGCTGT | 0.2 kcal/mol
125 | TAAAGCACGTGTAGGT | -0.11 kcal/mol

Row | Sequence | relative binding free energy
126 | CTATGCACGTGAGGGG | 0.15 kcal/mol
127 | TTGTGCACGTGGTCTT | -0.07 kcal/mol
128 | GGCTTCACGTGTGTTG | 0.37 kcal/mol
129 | GGTTTCACGTGTCAGT | 0.35 kcal/mol
130 | GGGTTCACGTGTGCCT | 0.15 kcal/mol
131 | ATTACCACGTGATTTT | 0.1 kcal/mol
132 | TTTAACACGTGGGAAC | 0.19 kcal/mol
133 | TCACTCACGTGGTGGG | 0.22 kcal/mol
134 | CGGCTCACGTGTGCGT | 0.27 kcal/mol
135 | GAGGTCACGTGTCTTG | 0.13 kcal/mol
136 | ATTTGCACGTGTTTTT | 0.03 kcal/mol
137 | TATTGCACGTGTATGA | -0.05 kcal/mol
138 | TATCTCACGTGTGTAG | 0.36 kcal/mol
139 | GGGGTCACGTGAAAGG | 0.28 kcal/mol
140 | GTTGGCACGTGCGTGG | -0.18 kcal/mol
141 | AGGGGCACGTGTCGAT | -0.07 kcal/mol
142 | AGAGGCACGTGGGCTT | -0.12 kcal/mol
143 | TATATCACGTGGCTTG | -0.03 kcal/mol
144 | AGTGGCACGTGCTGAA | -0.15 kcal/mol
145 | CGGAGCACGTGGGTCT | -0.2 kcal/mol
146 | AGGTGCACGTGTCTAT | 0 kcal/mol

Source: the BET-seq Pho4 binding data (Le et al. 2018)
